# Experimental data published in PubChem BioAssay AID540267 (National Center for Advancing Translational Sciences (NCATS), 2011).
# Hit rate of the full screen: of about 340,000 compounds, about 530 (0.16%) were called active. The shares of active, inactive and inconclusive entries below differ from those in the screen. Cut-off read from the data, not from the text of the source: active = activity change below about -80%; inconclusive = between about -30% and that limit; inactive = weaker than that.
# Assay: Small Molecules that selectively kill Giardia lamblia: qHTS;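 note: parasites exposed to compound for two days anaerobically before the ATP read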
# Settings: Giardia lamblia trophozoite viability; at 7.66 µM; active compounds read low
# Procedure, shortened: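 Anaerobic 48 hrs incubation at 37 deg C of 100 trophozoites/well with test compounds; ATPLite 1-Step luminescence, 15-30 min RT, reports cellular ATP as viability.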
# % is set by controls: 0 for no effect and ±100 for the full control effect.
row,SMILES,activity change
1,CCOC(=O)c1ccc(NS(C)(=O)=O)cc1,inconclusive: -49.7% [inhibitor]
2,C/C(=C\c1ccccc1)C(=O)NCc1ccco1,inconclusive: -38.7% [inhibitor]
3,O=C1c2cc(F)ccc2-n2c1nc1ccccc1c2=O,inconclusive: -52.5% [inhibitor]
4,Cc1cccc(C(=O)NCCc2n[nH]c(=S)n2C)c1,inconclusive: -31.6% [inhibitor]
5,Nc1ccc2oc(-c3ccc4nc[nH]c4c3)nc2c1,inconclusive: -35.2% [inhibitor]
6,Cc1cccc(NC(=O)CN2CCc3cc4c(cc3C2)OCCCO4)c1,inactive: 22%
7,Cc1ccnn1CC(=O)N/N=C/c1ccc([N+](=O)[O-])s1,active: -95.9%
8,Cc1cc(C)c2[nH]c(=O)c(CN(CC3CCCO3)C(=S)Nc3ccccc3)cc2c1 (stereo not drawn),inactive: -6.8%
9,CCc1ccccc1NS(=O)(=O)c1ccc2c(c1)NC(=O)CC(=O)N2,inactive: -11.5%
10,COc1cccc(C2CC(c3cccs3)=NN2C(=O)CSc2nc3ccccc3s2)c1OC (stereo not drawn),inactive: 5.52%
11,O=[N+]([O-])c1ccc(NCCCN2CCOCC2)c([N+](=O)[O-])c1,inconclusive: -34.3% [inhibitor]
12,CC(C)=C[C@@H]1C[C@H](C)[C@H]2CC[C@H](C)c3c(O)c(O)c(C)c1c32,inactive: -6.82%
13,COc1ccc2c(c1)C(=O)N1[C@H]3c4cc(OC)ccc4OC[C@@H]3[C@H](c3ccccc3)[C@]1(C)C(=O)N2,inconclusive: -33.1% [inhibitor]
14,CCOC(=O)N1CCN(C(=O)c2cc(-c3ccc(OCC)cc3)nc3ccccc23)CC1,inconclusive: -59.1% [inhibitor]
15,O=C(N/N=C/c1ccccn1)c1cc(Br)ccc1O,inconclusive: -32.2% [inhibitor]
16,CCOc1ccc([C@@H]2CC=C(C(=O)O)CN2S(=O)(=O)c2ccc(C)cc2)cc1,inconclusive: -43.9% [inhibitor]
17,CC(C)(C)OC(=O)N1CCC(Cc2cc(-c3ccccc3)no2)(C(=O)O)CC1,inconclusive: -31% [inhibitor]
18,O=C(NCc1ccccc1)[C@]1(C(F)(F)F)C[C@H](CCc2ccccc2)CCCO1,inconclusive: -33.8% [inhibitor]
19,Cc1ccc(S(=O)(=O)N2[C@@H](c3ccc(Cl)c(Cl)c3)C(C(=O)O)=C[C@H]2CC2CCCC2)cc1,inconclusive: -43% [inhibitor]

row,SMILES,activity change
1,C[Si](C)(C)n1ccnc1,inconclusive: -32.2% [inhibitor]
2,CC(C)OCCCN(C)C1CCN(S(=O)(=O)c2ccc(-c3cc(C(F)(F)F)no3)s2)CC1,inconclusive: -50.8% [inhibitor]
3,CN(C)c1ccc(-c2nc3cc(N)ccc3o2)cc1,inconclusive: -57.9% [inhibitor]
4,Cc1nonc1OCCNc1ccc([N+](=O)[O-])cc1[N+](=O)[O-],inactive: -2.85%
5,O=C(Nc1cccc2ccccc12)c1ccc([N+](=O)[O-])o1,active: -98.4%
6,COc1ccc(S(=O)(=O)Nc2cc(C)on2)cc1,inconclusive: -35% [inhibitor]
7,O=C(CCC(=O)c1ccc(F)cc1)NCC1(N2CCCCC2)CCCCC1,inconclusive: -38.5% [inhibitor]
8,O=S(=O)(NCc1ccccc1)c1ccc(S(=O)(=O)NCC2CCCO2)cc1 (stereo not drawn),inactive: -1.72%
9,CCOC(=O)c1cc(C#N)c(NCc2ccccc2)nc1C,inconclusive: -32.9% [inhibitor]
10,COc1ccc(NS(=O)(=O)c2cccc(C(=O)NCc3ccccc3CN3CCCC3)c2)cc1,inconclusive: -34.2% [inhibitor]
11,O=C(Nc1ccc2oc(-c3cccnc3)nc2c1)c1ccc([N+](=O)[O-])o1,inconclusive: -79.3% [inhibitor]
12,Cc1ccccc1COc1ccc(/C=N/NC(=O)c2nnn(-c3nonc3N)c2CN2CCC(C)CC2)cc1,inconclusive: -37.1% [inhibitor]
13,O=c1cc(-c2ccccc2)[nH]c2cc(Cl)ccc12,inconclusive: -49.7% [inhibitor]
14,C/C(=N\NC(=O)c1ccn(C)n1)c1ccc(NC(=O)C2CCCC2)cc1,inactive: -6.57%
15,Cc1ccc(C(=O)N/C(=C/c2ccc(-c3cc(C(F)(F)F)ccc3Cl)o2)C(=O)NCc2cccnc2)cc1,inactive: -0.0704%
16,CN(C(=O)c1cc([N+](=O)[O-])ccc1NCc1cccnc1)c1ccccc1,inconclusive: -51.6% [inhibitor]
17,Cc1ccc(NC(=O)C2CCN(S(=O)(=O)c3cc([N+](=O)[O-])ccc3Cl)CC2)nc1,inconclusive: -51.6% [inhibitor]
18,Cc1cnc([N+](=O)[O-])n1CCOC(=O)NC(=O)c1ccc(C(F)(F)F)cc1,active: -90.8%
19,O=C(COc1cccnc1[N+](=O)[O-])NCCc1ccc(Cl)cc1Cl,inconclusive: -78.4% [inhibitor]
